Consider 9 compounds from PubChem BioAssay (NCI).

Molecules are shown by their SMILES. Several values for one entry are separate records, joined by “and”; a condition that tells them apart may be missing. Identical values can stand only once.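 In this assay, cells in 96-well plates receive the compound at five concentrations for 48 hours. Endpoints are linearly interpolated between the surrounding concentrations. The concentration for 50% growth inhibition is given as GI50. TGI is the concentration that stops growth completely.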 A value given as a limit tells only on which side of the number the result lay.

The assay deals with NCI-H322M lung. In words: DTP human tumour cell line panel, 48 h.
The TGI is the concentration at which net growth stops. A higher TGI goes with lower sensitivity of the cells. For `N/C(CCSCCSCC/C(N)=N\O)=N\O`, the TGI was > 100 µM.

As for `CC(C)=CCC[C@@H](C)C1=C(N)C(O)=C(C)C(=O)C1=O`, the TGI is > 75 µM.

By GI50 is commonly meant the concentration that inhibits growth by half. As for `c1cc(OCCCCCOc2cccc(-c3nc4ccccc4[nH]3)c2)cc(-c2nc3ccccc3[nH]2)c1`, the GI50 was 5.14 µM and the TGI is > 100 µM.

Compound `CC1OC(OC2C(OC(=O)[C@]34CCC(C)(C)C[C@H]3C3=CC[C@@H]5[C@@]6(C)CC[C@H](OC7OC(CO)C(O)C(O)C7OC7OC(CO)C(O)C(O)C7O)C(C)(C)[C@@H]6CC[C@@]5(C)[C@]3(C)CC4)OCC(O)C2O)C(O)C(O)C1OC1OCC(O)C(O)C1O` (stereo partly specified) registered a TGI of 24.3 µM.

In the case of `O=C1NC(=O)C2C3C=CC(C12)C1C2C(=O)NC(=O)C2C31` (stereo unspecified), the GI50 was > 1000 µM; the total growth inhibition concentration (TGI) is 250 µM and > 1000 µM.

`Cc1cccc(C)c1NC(=O)C(=O)CC(=O)c1sc(Nc2c(C)cccc2C)nc1C`: the TGI was > 100 µM.

With `CS(=O)(=O)CCC1CCC(=O)O1` (stereo unspecified), the TGI was > 100 µM.

With `COc1ccc(C(C)Nc2cc(OC)c(OC)c(OC)c2)cc1` (stereo unspecified), the TGI was 84.2 µM.

For `CN(CC(=O)Nc1ccccc1C(=O)O)c1ccccc1`, the TGI was > 100 µM.
